Drawing on paper PMC9911399, “Two distinct binding modes provide the RNA-binding protein RbFox with extraordinary sequence specificity”, this text covers binding signal for 31 molecules.

B1: AAUCCUC (DNA:RNA)
RNA: GGGAGACCGGAAUUCAGAUUGUCCAAUCCUCUUAAAUCCCGUCGUAGCCACCA
DNA 1: CAATCTGAATTCCGGTCTCCC
DNA 2: TGGTGGCTACGACGGGATT
B2: UGUUUUC (DNA:RNA)
RNA: B1 RNA with A25U, A26G, C28U, C29U
DNA 1: CAATCTGAATTCCGGTCTCCC
DNA 2: TGGTGGCTACGACGGGATT
B3: CACCUAU (DNA:RNA)
RNA: B1 RNA with A25C, U27C, C29U, U30A, C31U
DNA 1: CAATCTGAATTCCGGTCTCCC
DNA 2: TGGTGGCTACGACGGGATT
B4: GGCCCAG (DNA:RNA)
RNA: B1 RNA with A25G, A26G, U27C, U30A, C31G
DNA 1: CAATCTGAATTCCGGTCTCCC
DNA 2: TGGTGGCTACGACGGGATT
B5: AGGCCGC (DNA:RNA)
RNA: B1 RNA with A26G, U27G, U30G
DNA 1: CAATCTGAATTCCGGTCTCCC
DNA 2: TGGTGGCTACGACGGGATT
B6: GGCCAGG (DNA:RNA)
RNA: B1 RNA with A25G, A26G, U27C, C29A, U30G, C31G
DNA 1: CAATCTGAATTCCGGTCTCCC
DNA 2: TGGTGGCTACGACGGGATT
B7: AACAGAC (DNA:RNA)
RNA: B1 RNA with U27C, C28A, C29G, U30A
DNA 1: CAATCTGAATTCCGGTCTCCC
DNA 2: TGGTGGCTACGACGGGATT
B8: GGGCGCA (DNA:RNA)
RNA: B1 RNA with A25G, A26G, U27G, C29G, U30C, C31A
DNA 1: CAATCTGAATTCCGGTCTCCC
DNA 2: TGGTGGCTACGACGGGATT
B9: CGUACGU (DNA:RNA)
RNA: B1 RNA with A25C, A26G, C28A, U30G, C31U
DNA 1: CAATCTGAATTCCGGTCTCCC
DNA 2: TGGTGGCTACGACGGGATT
B10: UAAUGUC (DNA:RNA)
RNA: B1 RNA with A25U, U27A, C28U, C29G
DNA 1: CAATCTGAATTCCGGTCTCCC
DNA 2: TGGTGGCTACGACGGGATT
B11: ACCACGC (DNA:RNA)
RNA: B1 RNA with A26C, U27C, C28A, U30G
DNA 1: CAATCTGAATTCCGGTCTCCC
DNA 2: TGGTGGCTACGACGGGATT
B12: GGCGGUG (DNA:RNA)
RNA: B1 RNA with A25G, A26G, U27C, C28G, C29G, C31G
DNA 1: CAATCTGAATTCCGGTCTCCC
DNA 2: TGGTGGCTACGACGGGATT
B13: AAAUAUG (DNA:RNA)
RNA: B1 RNA with U27A, C28U, C29A, C31G
DNA 1: CAATCTGAATTCCGGTCTCCC
DNA 2: TGGTGGCTACGACGGGATT
B14: GUUCAAC (DNA:RNA)
RNA: B1 RNA with A25G, A26U, C29A, U30A
DNA 1: CAATCTGAATTCCGGTCTCCC
DNA 2: TGGTGGCTACGACGGGATT
B15: GUGUACA (DNA:RNA)
RNA: GGGAGACCGGAAUUCAGAUUGUCCGUGUACAUUAAAUCCCGUCGUAGCCACCA
DNA 1: CAATCTGAATTCCGGTCTCCC
DNA 2: TGGTGGCTACGACGGGATT
B16: CGAAAGU (DNA:RNA)
RNA: B15 RNA with G25C, U26G, G27A, U28A, C30G, A31U
DNA 1: CAATCTGAATTCCGGTCTCCC
DNA 2: TGGTGGCTACGACGGGATT
B17: UCGAUAC (DNA:RNA)
RNA: B1 RNA with A25U, A26C, U27G, C28A, C29U, U30A
DNA 1: CAATCTGAATTCCGGTCTCCC
DNA 2: TGGTGGCTACGACGGGATT
B18: UUUUUCU (DNA:RNA)
RNA: B15 RNA with G25U, G27U, A29U, A31U
DNA 1: CAATCTGAATTCCGGTCTCCC
DNA 2: TGGTGGCTACGACGGGATT
B19: GAGAUUG (DNA:RNA)
RNA: B1 RNA with A25G, U27G, C28A, C29U, C31G
DNA 1: CAATCTGAATTCCGGTCTCCC
DNA 2: TGGTGGCTACGACGGGATT
B20: CGUACAG (DNA:RNA)
RNA: B1 RNA with A25C, A26G, C28A, U30A, C31G
DNA 1: CAATCTGAATTCCGGTCTCCC
DNA 2: TGGTGGCTACGACGGGATT
B21: AUGUUUC (DNA:RNA)
RNA: B1 RNA with A26U, U27G, C28U, C29U
DNA 1: CAATCTGAATTCCGGTCTCCC
DNA 2: TGGTGGCTACGACGGGATT
B22: GGGUGGG (DNA:RNA)
RNA: B15 RNA with U26G, A29G, C30G, A31G
DNA 1: CAATCTGAATTCCGGTCTCCC
DNA 2: TGGTGGCTACGACGGGATT
B23: AAAAAAU (DNA:RNA)
RNA: B1 RNA with U27A, C28A, C29A, U30A, C31U
DNA 1: CAATCTGAATTCCGGTCTCCC
DNA 2: TGGTGGCTACGACGGGATT
B24: CCCGUUG (DNA:RNA)
RNA: B1 RNA with A25C, A26C, U27C, C28G, C29U, C31G
DNA 1: CAATCTGAATTCCGGTCTCCC
DNA 2: TGGTGGCTACGACGGGATT
B25: UACACGA (DNA:RNA)
RNA: B1 RNA with A25U, U27C, C28A, U30G, C31A
DNA 1: CAATCTGAATTCCGGTCTCCC
DNA 2: TGGTGGCTACGACGGGATT
B26: CACAAUA (DNA:RNA)
RNA: B1 RNA with A25C, U27C, C28A, C29A, C31A
DNA 1: CAATCTGAATTCCGGTCTCCC
DNA 2: TGGTGGCTACGACGGGATT
B27: GGUCACC (DNA:RNA)
RNA: B1 RNA with A25G, A26G, C29A, U30C
DNA 1: CAATCTGAATTCCGGTCTCCC
DNA 2: TGGTGGCTACGACGGGATT
B28: CGCCCAC (DNA:RNA)
RNA: B1 RNA with A25C, A26G, U27C, U30A
DNA 1: CAATCTGAATTCCGGTCTCCC
DNA 2: TGGTGGCTACGACGGGATT
B29: CCCAACC (DNA:RNA)
RNA: B15 RNA with G25C, U26C, G27C, U28A, A31C
DNA 1: CAATCTGAATTCCGGTCTCCC
DNA 2: TGGTGGCTACGACGGGATT
B30: GCAUCGC (DNA:RNA)
RNA: B1 RNA with A25G, A26C, U27A, C28U, U30G
DNA 1: CAATCTGAATTCCGGTCTCCC
DNA 2: TGGTGGCTACGACGGGATT
B31: GUGGCAU (DNA:RNA)
RNA: B15 RNA with U28G, A29C, C30A, A31U
DNA 1: CAATCTGAATTCCGGTCTCCC
DNA 2: TGGTGGCTACGACGGGATT

Substitutions are numbered along the chain they refer to; changes in the protein carry UniProt numbers. This is one part of the list.

The test addresses T1, RBFOX1 RRM RbFoxmut (Fox-RRM*) (Homo sapiens, UniProt Q9NWB1 109-208, R118D;E147R;N151S;E152T).
T1 sequence: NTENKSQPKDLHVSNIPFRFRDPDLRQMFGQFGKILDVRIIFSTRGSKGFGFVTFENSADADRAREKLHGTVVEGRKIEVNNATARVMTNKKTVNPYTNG
Nature of the test: EMSA; HiTS-Eq, 1 nM pool, 10 min; buffer printed only for the single-RNA assays: 10 mM Tris pH 7.5, 150 mM NaCl, 3.4 mM EDTA, 0.001% NP-40, 30 C. The settings on record: tags: His6 N-terminal (pET28a); label: 5' 32P. In outline:
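Purified RbFox RRM, wild type or mutant, was incubated for 10 min in 50 µL with 1 nM of a 5′-radiolabelled RNA pool carrying 7 randomized nucleotides, whose flanks were annealed to DNA oligonucleotides, over a series of increasing protein concentrations. Unbound RNA was resolved on 8% native PAGE, cut out, reverse-transcribed, barcoded by PCR and sequenced on an Illumina HiSeq 2500. Relative association constants were derived from changes in read counts for each RNA species versus the control reaction and normalised to the cognate motif.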
Turning to B1, the binding signal was 0.0428 KA relative to UGCAUGU. As for B2, the figure is 0.0709 KA relative to UGCAUGU; as for B3, 0.112 KA relative to UGCAUGU; as for B4, 0.0915 KA relative to UGCAUGU.

For the molecule B5, the binding signal was 0.0772 KA relative to UGCAUGU. As for B6, the figure is 0.0786 KA relative to UGCAUGU; as for B7, 0.0632 KA relative to UGCAUGU; as for B8, 0.14 KA relative to UGCAUGU. As for B9, the figure is 0.126 KA relative to UGCAUGU; as for B10, 0.111 KA relative to UGCAUGU. In the case of B11, the binding signal is 0.0907 KA relative to UGCAUGU.

Turning to B12, the binding signal is 0.153 KA relative to UGCAUGU.

As to B13, the binding signal is 0.105 KA relative to UGCAUGU. As for B14, the figure is 0.0769 KA relative to UGCAUGU. The figure for B15 is 0.104 KA relative to UGCAUGU; for B16 it is 0.0835 KA relative to UGCAUGU; for B17 it is 0.0681 KA relative to UGCAUGU. As for B18, the figure is 0.0729 KA relative to UGCAUGU. Consider B19, for which the binding signal was 0.314 KA relative to UGCAUGU.

As for B20, the binding signal is 0.0755 KA relative to UGCAUGU. As for B21, the figure is 0.252 KA relative to UGCAUGU; as for B22, 0.0733 KA relative to UGCAUGU; as for B23, 0.0595 KA relative to UGCAUGU. As for B24, the figure is 0.0873 KA relative to UGCAUGU; as for B25, 0.0611 KA relative to UGCAUGU. As for B26, the figure is 0.084 KA relative to UGCAUGU; as for B27, 0.0668 KA relative to UGCAUGU. In the case of B28, the binding signal was 0.0709 KA relative to UGCAUGU. As to B29, the binding signal was 0.0535 KA relative to UGCAUGU. The figure for B30 is 0.443 KA relative to UGCAUGU; for B31 it is 0.123 KA relative to UGCAUGU.
